# Source: the supplement of paper PMC8728848
# The list shows a part of the results.
# How the values were obtained:
# Assay in all cases: glycan array binding signal (z-score within array); higher = stronger binding
# Conditions in all cases: glycan notation: IUPAC condensed, linker removed
# Gal6S(b1-3)GlcNAc6S = target: Gal6S(b1-3)GlcNAc6S
# Outline: (§1)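 Glycan array binding is given as a within-array Z-score, which can be read as non-binding when negative. The arrays, 3228 of them, came from the Consortium for Functional Glycomics database and were retained only where the protein sequence was available. Z-scores were averaged across arrays of the same protein sequence at different concentrations or buffers and across linkers.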
# Gal6S(b1-4)Glc = target: Gal6S(b1-4)Glc
# Outline: as §1
# Gal6S(b1-4)Glc6S = target: Gal6S(b1-4)Glc6S
# Outline: as §1
# Gal6S(b1-4)GlcNAc = target: Gal6S(b1-4)GlcNAc
# Outline: as §1
# Gal6S(b1-4)GlcNAc6S = target: Gal6S(b1-4)GlcNAc6S
# Outline: as §1
# GalNAc(a1-3)Gal = target: GalNAc(a1-3)Gal
# Outline: as §1
# GalNAc(a1-3)GalNAc = target: GalNAc(a1-3)GalNAc
# Outline: as §1
# [1] = target: GalNAc(a1-3)GalNAc(b1-3)Gal(a1-4)Gal(b1-4)Glc
# Outline: as §1
# [2] = target: GalNAc(a1-3)GalNAc(b1-3)Gal(a1-4)Gal(b1-4)GlcNAc
# Outline: as §1
# GalNAc(b1-3)Gal = target: GalNAc(b1-3)Gal
# Outline: as §1
# [3] = target: GalNAc(b1-3)Gal(a1-4)Gal(b1-4)GlcNAc
# Outline: as §1
# [4] = target: GalNAc(b1-3)Gal(a1-4)Gal(b1-4)GlcNAc(b1-3)Gal(b1-4)Glc
# Outline: as §1
# [5] = target: GalNAc(b1-3)Gal(a1-6)Gal(b1-4)Glc
# Outline: as §1
# GalNAc(b1-3)GalNAc = target: GalNAc(b1-3)GalNAc
# Outline: as §1
# GalNAc(b1-4)Gal(b1-4)Glc = target: GalNAc(b1-4)Gal(b1-4)Glc
# Outline: as §1
# GalNAc(b1-4)GlcNAc = target: GalNAc(b1-4)GlcNAc
# Outline: as §1
# [6] = target: GalNAc(b1-4)GlcNAc(b1-2)Man(a1-3)[GalNAc(b1-4)GlcNAc(b1-2)Man(a1-6)]Man(b1-4)GlcNAc(b1-4)GlcNAc
# Outline: as §1
# GalNAc(b1-6)GalNAc = target: GalNAc(b1-6)GalNAc
# Outline: as §1
# Glc(a1-4)Glc = target: Glc(a1-4)Glc
# Outline: as §1
# [7] = target: Glc(a1-4)Glc(a1-4)Glc(a1-4)Glc
# Outline: as §1
# Glc(a1-6)Glc(a1-6)Glc = target: Glc(a1-6)Glc(a1-6)Glc
# Outline: as §1
# [8] = target: Glc(a1-6)Glc(a1-6)Glc(a1-6)Glc
# Outline: as §1
# Glc(b1-4)Glc = target: Glc(b1-4)Glc
# Outline: as §1
# Glc(b1-6)Glc = target: Glc(b1-6)Glc
# Outline: as §1
# GlcA(b1-3)Gal = target: GlcA(b1-3)Gal
# Outline: as §1
# GlcA(b1-3)GlcNAc = target: GlcA(b1-3)GlcNAc
# Outline: as §1
# GlcA(b1-6)Gal = target: GlcA(b1-6)Gal
# Outline: as §1
# [9] = target: GlcNAc(a1-3)Gal(b1-4)GlcNAc
# Outline: as §1
# [10] = target: GlcNAc(a1-4)Gal(b1-3)GlcNAc
# Outline: as §1
# [11] = target: GlcNAc(a1-4)Gal(b1-4)GalNAc
# Outline: as §1
# [12] = target: GlcNAc(a1-4)Gal(b1-4)GlcNAc
# Outline: as §1
# [13] = target: GlcNAc(a1-4)Gal(b1-4)GlcNAc(b1-3)Gal(b1-4)Glc
# Outline: as §1
# [14] = target: GlcNAc(a1-4)Gal(b1-4)GlcNAc(b1-3)Gal(b1-4)GlcNAc
# Outline: as §1
# [15] = target: GlcNAc(a1-4)Gal(b1-4)GlcNAc(b1-3)Gal(b1-4)GlcNAc(b1-3)Gal(b1-4)GlcNAc
# Outline: as §1
# [16] = target: GlcNAc(a1-4)Gal(b1-4)GlcNAc(b1-3)Gal(b1-4)[Fuc(a1-3)]GlcNAc(b1-3)Gal(b1-4)[Fuc(a1-3)]GlcNAc
# Outline: as §1
# [17] = target: GlcNAc(a1-6)Gal(b1-4)GlcNAc
# Outline: as §1
# [18] = target: GlcNAc(b1-2)Gal(b1-3)GalNAc
# Outline: as §1
binder,measurement,setting,value
"FedF (Escherichia coli), Q47212 (protein) MRLKYILIIPLLLISLSVFASTLQVDKSVSYDWINSSASSAQVTGTLLGTGKTNTTQMPALYTWQHQIYNVNFIPSSSGTLTCQAGTILVWKNGRETQYALECRVSIHHSSGSINESQWGQQSQVGFGTACGNKKCRFTGFEISLRIPPNAQTYPLSSGDLKGSFSLTNKEVNWSASIYVPAIAKSYRLDTSITLPDTVNLKQNQATPVYYTFSAPSVSNTITGIPNQNDMPSSNVKLTIGPIQSKTTALYVQPDATGSWYDLSKSITMTVVKSSMLNFKGINAKPGNVTLSVPIVFEIQ",glycan array binding signal (z-score),Gal6S(b1-3)GlcNAc6S,-0.166
same,glycan array binding signal (z-score),Gal6S(b1-4)Glc,0.175
same,glycan array binding signal (z-score),Gal6S(b1-4)Glc6S,0.578
same,glycan array binding signal (z-score),Gal6S(b1-4)GlcNAc,0.402
same,glycan array binding signal (z-score),Gal6S(b1-4)GlcNAc6S,-0.171
same,glycan array binding signal (z-score),GalNAc(a1-3)Gal,0.327
same,glycan array binding signal (z-score),GalNAc(a1-3)GalNAc,0.597
same,glycan array binding signal (z-score),[1],-0.192
same,glycan array binding signal (z-score),[2],0.086
same,glycan array binding signal (z-score),GalNAc(b1-3)Gal,0.035
same,glycan array binding signal (z-score),[3],-0.261
same,glycan array binding signal (z-score),[4],-0.156
same,glycan array binding signal (z-score),[5],-0.124
same,glycan array binding signal (z-score),GalNAc(b1-3)GalNAc,-0.237
same,glycan array binding signal (z-score),GalNAc(b1-4)Gal(b1-4)Glc,-0.151
same,glycan array binding signal (z-score),GalNAc(b1-4)GlcNAc,-0.232
same,glycan array binding signal (z-score),[6],-0.129
same,glycan array binding signal (z-score),GalNAc(b1-6)GalNAc,-0.207
same,glycan array binding signal (z-score),Glc(a1-4)Glc,-0.113
same,glycan array binding signal (z-score),[7],-0.139
same,glycan array binding signal (z-score),Glc(a1-6)Glc(a1-6)Glc,-0.456
same,glycan array binding signal (z-score),[8],0.629
same,glycan array binding signal (z-score),Glc(b1-4)Glc,-0.363
same,glycan array binding signal (z-score),Glc(b1-6)Glc,-0.196
same,glycan array binding signal (z-score),GlcA(b1-3)Gal,0.136
same,glycan array binding signal (z-score),GlcA(b1-3)GlcNAc,-0.192
same,glycan array binding signal (z-score),GlcA(b1-6)Gal,-0.02
same,glycan array binding signal (z-score),[9],-0.469
same,glycan array binding signal (z-score),[10],-0.084
same,glycan array binding signal (z-score),[11],-0.051
same,glycan array binding signal (z-score),[12],-0.066
same,glycan array binding signal (z-score),[13],-0.16
same,glycan array binding signal (z-score),[14],0.918
same,glycan array binding signal (z-score),[15],-0.191
same,glycan array binding signal (z-score),[16],0.479
same,glycan array binding signal (z-score),[17],-0.46
same,glycan array binding signal (z-score),[18],-0.017
